# Source: patent US20230235012A1 (ALPINE IMMUNE SCIENCES, published 2023)
# B1: stacked Fc fusion: Domain 1 ICOSL WT / Domain 2 CD80 WT / Fc (Fc fusion)
# chain: DTQEKEVRAMVGSDVELSCACPEGSRFDLNDVYVYWQTSESKTVVTYHIPQNSSLENVDSRYRNRALMSPAGMLRGDFSLRLFNVTPQDEQKFHCLVLSQSLGFQEVLSVEVTLHVAANFSVGGGGSGGGGSGGGGSVIHVTKEVKEVATLSCGHNVSVEELAQTRIYWQKEKKMVLTMMSGDMNIWPEYKNRTIFDITNNLSIVILALRPSDEGTYECVVLKYEKDAFKREHLAEVTLSVKADFPTPSISDFEIPGGGGSGGGGSAAA[human IgG1 Fc with C220S R292C N297G V302C (EU numbers) not spelt out]
# Molecular target: T1, human PD-L1, full-length, expressed on transfected cells (human, UniProt Q9NZQ7)
# T1 construct: whole, on cells; also called CD274; B7-H1
# T1 sequence (Q9NZQ7 19-290): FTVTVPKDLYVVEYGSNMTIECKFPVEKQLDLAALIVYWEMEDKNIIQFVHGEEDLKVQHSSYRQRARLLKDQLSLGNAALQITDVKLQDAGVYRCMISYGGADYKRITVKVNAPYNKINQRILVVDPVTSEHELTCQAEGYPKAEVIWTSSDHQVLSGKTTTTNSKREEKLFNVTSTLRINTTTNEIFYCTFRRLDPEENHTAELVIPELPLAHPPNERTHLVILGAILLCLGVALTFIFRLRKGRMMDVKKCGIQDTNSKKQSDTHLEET
# Assay: flow cytometry, transfected cells
binder,measurement,value
B1,MFI,2970 MFI
